# Reference: PubChem BioAssay AID602310 (National Center for Advancing Translational Sciences (NCATS), 2012)
# The whole screen tested about 410,000 compounds, of which about 310 (0.076%) were called active. Another 2% or so got no clear call; they are omitted. Calls follow the shape of the dose curve; as a rule, active = well fitted curve in the direction sought with a large enough effect; inconclusive = small, poorly fitted or top-dose-only effect; inactive = flat fitted curve, though single readings scatter. This is a selection; strong and weak results do not stand in their true shares. Where a structure was tested more than once in an assay, its records may differ in their call.
# Biological target: DNA dC->dU-editing enzyme APOBEC-3G (Homo sapiens) (UniProt Q9HC16)
# Sequence of UniProt Q9HC16 (Q9HC16 whole entry, looked up): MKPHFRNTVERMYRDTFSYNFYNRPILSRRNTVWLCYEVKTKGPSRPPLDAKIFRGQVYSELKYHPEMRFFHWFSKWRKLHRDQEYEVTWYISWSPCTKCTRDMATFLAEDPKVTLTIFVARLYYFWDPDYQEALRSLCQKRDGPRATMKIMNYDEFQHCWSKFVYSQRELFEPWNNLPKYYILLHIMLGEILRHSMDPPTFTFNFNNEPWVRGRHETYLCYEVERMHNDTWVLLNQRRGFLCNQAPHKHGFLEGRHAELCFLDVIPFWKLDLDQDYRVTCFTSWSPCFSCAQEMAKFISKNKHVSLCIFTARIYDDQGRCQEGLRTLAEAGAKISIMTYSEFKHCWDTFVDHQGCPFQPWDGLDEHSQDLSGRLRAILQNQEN
# Assay: qHTS for Inhibitors of Vif-A3G Interactions: qHTS; also: nearly all actives have a fitted effect of over 60% in size;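 as to activity, negative = active: hits raise eYFP signal because A3G escapes Vif-driven loss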
# Details: HeLa A3G-eYFP + Vif (tagged APOBEC3G with the HIV-1 protein that degrades it), YFP fluorescence, overnight; series mostly up to 46.1 µM; activity, negative = active: at the top concentration
# Procedure, shortened: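 Read-out is eYFP fluorescence (Ex 488/Em 500-530) from Vif-expressing HeLa A3G-eYFP cells; more signal means A3G escaped Vif-mediated degradation. Cells plated overnight, compound pinned in, incubated overnight at 37 deg C.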
# % is scaled to controls: 0 for no effect and ±100 for the full control effect; potency is read from the fitted curve at half-maximal effect.
Compound,"activity, negative = active",Potency
O=C(C[C@H]1C/C=C\CC[C@@H](Cc2ccc(F)cc2)C(=O)O[C@H](c2ccccc2)CNC1=O)N[C@H](CO)Cc1ccccc1,inactive: -13%,
Cn1c(=O)oc2cc(S(=O)(=O)Nc3ccccc3O)ccc21,inactive: -31.5%,
CN(C)c1ccc(/C=C/c2ccnc3ccccc23)cc1O,,active: 11.2 µM
COc1ccc(/C=C2/CCc3ccccc3C2=O)cc1CN1CCOCC1,inactive: -3.26%,
N#C/C(=C\c1ccc(N2CCOCC2)o1)c1nc2ccccc2[nH]1,inactive: 1.55%,
Cc1ccccc1NC(=O)Cn1nnc(C(=O)NCc2ccco2)c1N,inactive: -27.7%,
O=C(C[C@H]1C/C=C\CC[C@H](Cc2ccc(F)cc2)C(=O)O[C@H](c2ccccc2)CNC1=O)N[C@H](CO)Cc1ccccc1,inactive: -24.9%,
O=C(C[C@@H]1C/C=C/CC[C@@H](Cc2ccc(F)cc2)C(=O)OC[C@H](Cc2ccccc2)NC1=O)N[C@H](CO)Cc1ccccc1,inactive: -23.4%,
CC(=O)Nc1cc(NC(C)=O)cc(-c2nc3ccccc3[nH]2)c1,inactive: 0.137%,
CCOC(=O)c1c(CN(CC)CC)n(-c2ccccc2)c2ccc(O)cc12,,active: 12.6 µM
O=C(O)CCCNc1cc(N2CCN(C(=O)c3ccco3)CC2)c2noc3c2c1C(=O)c1ccccc1-3,,active: 22.4 µM
COC(C[C@H]1O[C@@H]1C(=O)[C@H](C)OCc1ccccc1)OC,inactive: -14.3%,
CCCCCCc1cc2cc(-c3nnc(-c4ccccc4OC)o3)c(=O)oc2cc1O,,active: 12.6 µM
CC[C@H](C)C(=O)O[C@H]1CCC=C2C=C[C@H](C)[C@H](CC[C@@H]3C[C@@H](O)CC(=O)O3)[C@H]21,inactive: -24.6%,
C=C1[C@@H](O)[C@H](CC(C)C)N(Cc2ccccc2Br)S1(=O)=O,inactive: -23.3%,
CC(C)C[C@H]1CN([C@@H](CC(C)C)CN2CCCC2CN2C(=S)NC[C@@H]2Cc2ccc(O)cc2)C(=S)N1CC1CCCCC1 (stereo partly drawn),inactive: 1.25%,
CCCCCCCCN1[C@@H](CC(=O)O)c2cc(C(F)(F)F)ccc2S1(=O)=O,inactive: 3.29%,
C=C1CCC2[C@](C)(CO)[C@H](O)CC[C@@]2(C)[C@@H]1C/C=C1\C(=O)OC[C@H]1O (stereo partly drawn),inactive: -13%,
COc1cccc(NC(=O)CSc2nc3ccccc3nc2N2CCOCC2)c1,inactive: -12%,
COc1ccc(/C=C2/CCc3ccccc3C2=O)cc1OC,inactive: -16.7%,
COCCNC(=O)c1cc2c(c(-c3cccc(-c4cc5ccccc5o4)c3)n1)[C@@H](CCO)N(S(=O)C(C)(C)C)C2 (stereo partly drawn),inactive: -19.6%,
N#C/C(=C\c1ccc(-c2ccc(C(=O)O)cc2)o1)c1nc2ccccc2[nH]1,inactive: -15.8%,
CCC/C=N/NC(=O)c1[nH]c2c([N+](=O)[O-])cccc2c1C,,active: 7.08 µM
CSCC[C@H](NC(=O)[C@H](Cc1ccccc1)n1c(=O)[nH]c2ccccc2c1=O)C(=O)N1CCC[C@H]1C(=O)O,inactive: 4.09%,
CCc1ccccc1NC(=O)Cn1nnc(C(=O)NCc2cccs2)c1N,inactive: -18%,

Compound,"activity, negative = active",Potency
O[C@H]1CN(Cc2cccs2)[C@@H](c2ccc(Cl)cc2)C[C@@H]1n1cc(C2CC2)nn1,inactive: -0.649%,
N#C/C(=C/c1ccc(-c2ccccc2[N+](=O)[O-])o1)C(N)=O,inactive: -10.9%,
Cc1ccc(C)c(NC(=O)Cn2nnc(C(=O)NCc3ccco3)c2N)c1,inactive: -28.8%,
CN1CCN(CCCN2c3ccccc3Sc3ccc(C(F)(F)F)cc32)CC1,,inactive
COc1cc(-c2noc(C)c2C#Cc2ccccn2)cc(OC)c1OC,inactive: -40.5%,
N#Cc1cccc(NC(=O)CSc2ccc3c4c(cccc24)C(=O)c2ccccc2-3)c1,,active: 2.82 µM
O=C(/C=C\c1ccccc1)Oc1cccc2cccnc12,inactive: -3.62%,
CC(C)N1CCc2c(sc(NC(=O)c3ccc(S(=O)(=O)N4CCc5ccccc54)cc3)c2C(N)=O)C1,,active: 20 µM
C=CC[C@@H](CC(=O)N[C@@H](CO)Cc1ccccc1)C(=O)NC[C@H](OC(=O)[C@@H](CC=C)Cc1ccc(F)cc1)c1ccccc1,inactive: 0.942%,
COC(=O)N1C(=O)[C@](c2ccccc2)(C2CCCC2)N1C(=O)OC,inactive: -10%,
COc1ccc(-c2nc3c4ccccc4ccn3c2Cc2ccsc2)cc1OC,,active: 8.91 µM
COc1ccc(NS(=O)(=O)c2cc([N+](=O)[O-])ccc2N/N=C\c2c(C)[nH]c3ccccc23)cc1,inactive: -15.4%,
C[C@H](NC(=O)c1nc[nH]c1C(=O)N1CCN(C(=O)OC(C)(C)C)CC1)c1ccccc1,inactive: -8.97%,
CCN1C(=O)[C@H]2[C@@H](c3ccc(SC4CCCCC4)cc3)N3CCCC[C@@]3(C(=O)OC)[C@H]2C1=O,inactive: 3.42%,
COc1cc(-c2noc(C)c2-c2ccc3[nH]ccc3c2)cc(OC)c1OC,,active: 14.1 µM
COc1ccc2c(c1OC)C(=O)OC2C1c2c(cc3c(c2OC)OCO3)CCN1C (stereo not drawn),,inactive
CN(c1ccccc1)S(=O)(=O)c1ccc(NC(=O)c2nc(S(C)(=O)=O)ncc2Cl)cc1,inactive: -10.2%,
O=C(O)c1ccc(N/N=C/C2=C(N3CCOCC3)C(=C\c3ccccc3)/CC2)cc1,inactive: 5.77%,
CCN1CCN(Cc2ccc(NC(=O)c3ccc(C)c(NC(=O)C(=O)c4c[nH]c5ccccc45)c3)cc2C(F)(F)F)CC1,inactive: -28.9%,
CC(=O)c1cccc(-c2ccnc3c2CC(C(=O)NCc2ccco2)O3)c1 (stereo not drawn),,active: 0.891 µM
Cc1ccc([C@H]2C[C@@H](n3cc(C4CC4)nn3)[C@H](O)CN2CC2CCCCC2)cc1,inactive: -22.8%,
Cc1cccc(N2CCN(C(=O)C3CCN(c4ncnc5c4nc4n5CCCCC4)CC3)CC2C)c1 (stereo not drawn),inactive: -24.6%,
C[n+]1cc2c3c(ccc2c2ccc4cc5c(cc4c21)OCO5)OCO3,inactive: -5.24%,
CC1=CC(C)(C)NC(=S)N1c1ccc2ccccc2c1,inactive: 2.76%,
Cc1ccc(C(=O)N/C(=C/c2ccc(-c3cccc([N+](=O)[O-])c3)o2)C(=O)NC(C)(C)C)cc1,inactive: -0.0156%,

Compound,"activity, negative = active",Potency
COC(=O)c1sc2cc([N+](=O)[O-])cc(SCC(C)C)c2c1N,,active: 10 µM
CCN1/C(=C\c2ccc3cc(C)ccc3[n+]2CC)Sc2cc(C)c(C)cc21,inactive: 14.8%,
CN(C)c1ccc(/C=C/c2nc3ccccc3c(=O)n2CCO)cc1,,active: 11.2 µM
CCOc1ccccc1CNC(=O)C1CCCN(c2nnc(C)c3c(C)n(-c4ccccc4)nc23)C1 (stereo not drawn),inactive: -9.34%,
Cc1ccc(NC(=O)c2cc(S(=O)(=O)NCCC3=CCCCC3)ccc2F)cc1F,inactive: -13%,
COc1cc2c(OC(C)=O)c3c(c(-c4ccc5c(c4)OCO5)c2cc1OC)C(=O)OC3,inactive: -23%,
Cc1ccn2c(Nc3ccccc3C)c(-c3ccccn3)nc2c1,inactive: 2.84%,
Cc1nnc(NC(=O)c2nc(S(=O)(=O)Cc3ccccc3)ncc2Cl)s1,inactive: -20.4%,
CCN1C/C(=C/c2ccc(N3CCOCC3)cc2)C(=O)/C(=C/c2ccc(N3CCOCC3)cc2)C1,,active: 10 µM
CCOc1ccccc1NC(=O)Cn1nnc(C(=O)NCc2cccs2)c1N,inactive: -35%,
CCc1nnc(NC(=O)c2nc(S(=O)(=O)Cc3cccc(C)c3)ncc2Cl)s1,inactive: -14.3%,
CCc1cccc2cc3c(N)c(C(=O)Nc4ccc(S(=O)(=O)N5CCCC5)cc4)sc3nc12,,active: 3.55 µM
N#CC1=C(N)Oc2c(sc3ccccc23)C1c1ccco1 (stereo not drawn),,active: 11.2 µM
COc1cc(OC)c(OC)cc1/C=C/c1ccc2ccccc2n1,inactive: -16%,
COc1ccc(-n2c(O)c(/C=N/NS(=O)(=O)c3ccc(C)c([N+](=O)[O-])c3)c3ccccc3c2=O)cc1OC,,active: 3.55 µM
O=C(C[n+]1cc(Br)cc2ccccc21)c1ccc(F)cc1,inactive: -25.5%,
CCCCCCCCCCCCCCCC[n+]1cccc(C(=O)N(CC)CC)c1,inactive: 2.77%,
O=C(Nc1ccc([N+](=O)[O-])cc1)C(Cc1ccccc1)N1C(=O)c2cccc3cccc(c23)C1=O (stereo not drawn),,active: 10 µM
Cn1c(N)c(-c2ccccc2)c2ccc([N+](=O)[O-])cc2c1=O,,active: 8.91 µM
N#CC1=C(N)C(C#N)(C#N)[C@H](c2ccncc2)[C@H]2CN(C(=O)OCc3ccccc3)CC=C12,inactive: -12.4%,
COc1ccc(-n2nc3c(N4CCC(C(=O)NCc5ccccc5C)CC4)nnc(C)c3c2C)cc1,inactive: -27.2%,
CC1=NN(c2ccccc2)C(=O)/C1=C\C=C\c1ccccc1,inactive: -24.6%,
CCCCCc1ccc(-c2cn(Cc3ccc(C(=O)c4ccccc4)cc3)nn2)cc1,inactive: -25.8%,
